From paper PMC10076317, “Extended DNA threading through a dual-engine motor module of the activating signal co-integrator 1 complex” (Nature Communications, 2023)
Results are given in words; binding and its absence hold for the method and conditions named. For some assays here: In cells and extracts the contact can be indirect. Some results given as binding are weak or reduced against the parent protein; the word gives no strength. For some assays here: Where a sequence is shown, tags or fusion partners need not be part of it. Values belong to the molecule of their own block, whether it stands above or below them.

Sequences of proteins named here, by UniProt entry; tags and fusion partners are left off. Residues count along the entry.
ASCC3 N-terminal region (ASCC3^NTR, residues 1-400) (Q8N3C0, residues 1-400): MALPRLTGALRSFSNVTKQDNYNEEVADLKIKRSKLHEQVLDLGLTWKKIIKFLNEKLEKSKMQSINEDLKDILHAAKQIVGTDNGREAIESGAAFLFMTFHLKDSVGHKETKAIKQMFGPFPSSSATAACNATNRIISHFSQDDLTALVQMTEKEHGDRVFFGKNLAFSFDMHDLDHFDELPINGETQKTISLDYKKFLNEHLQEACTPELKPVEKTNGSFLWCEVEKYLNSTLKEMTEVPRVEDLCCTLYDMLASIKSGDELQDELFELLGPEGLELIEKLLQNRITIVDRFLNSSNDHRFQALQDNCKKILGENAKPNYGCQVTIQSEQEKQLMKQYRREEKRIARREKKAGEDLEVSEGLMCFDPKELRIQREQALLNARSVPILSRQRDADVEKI
ASCC3 helicase region (ASCC3^HR, residues 401-2202) (Q8N3C0, residues 401-2202): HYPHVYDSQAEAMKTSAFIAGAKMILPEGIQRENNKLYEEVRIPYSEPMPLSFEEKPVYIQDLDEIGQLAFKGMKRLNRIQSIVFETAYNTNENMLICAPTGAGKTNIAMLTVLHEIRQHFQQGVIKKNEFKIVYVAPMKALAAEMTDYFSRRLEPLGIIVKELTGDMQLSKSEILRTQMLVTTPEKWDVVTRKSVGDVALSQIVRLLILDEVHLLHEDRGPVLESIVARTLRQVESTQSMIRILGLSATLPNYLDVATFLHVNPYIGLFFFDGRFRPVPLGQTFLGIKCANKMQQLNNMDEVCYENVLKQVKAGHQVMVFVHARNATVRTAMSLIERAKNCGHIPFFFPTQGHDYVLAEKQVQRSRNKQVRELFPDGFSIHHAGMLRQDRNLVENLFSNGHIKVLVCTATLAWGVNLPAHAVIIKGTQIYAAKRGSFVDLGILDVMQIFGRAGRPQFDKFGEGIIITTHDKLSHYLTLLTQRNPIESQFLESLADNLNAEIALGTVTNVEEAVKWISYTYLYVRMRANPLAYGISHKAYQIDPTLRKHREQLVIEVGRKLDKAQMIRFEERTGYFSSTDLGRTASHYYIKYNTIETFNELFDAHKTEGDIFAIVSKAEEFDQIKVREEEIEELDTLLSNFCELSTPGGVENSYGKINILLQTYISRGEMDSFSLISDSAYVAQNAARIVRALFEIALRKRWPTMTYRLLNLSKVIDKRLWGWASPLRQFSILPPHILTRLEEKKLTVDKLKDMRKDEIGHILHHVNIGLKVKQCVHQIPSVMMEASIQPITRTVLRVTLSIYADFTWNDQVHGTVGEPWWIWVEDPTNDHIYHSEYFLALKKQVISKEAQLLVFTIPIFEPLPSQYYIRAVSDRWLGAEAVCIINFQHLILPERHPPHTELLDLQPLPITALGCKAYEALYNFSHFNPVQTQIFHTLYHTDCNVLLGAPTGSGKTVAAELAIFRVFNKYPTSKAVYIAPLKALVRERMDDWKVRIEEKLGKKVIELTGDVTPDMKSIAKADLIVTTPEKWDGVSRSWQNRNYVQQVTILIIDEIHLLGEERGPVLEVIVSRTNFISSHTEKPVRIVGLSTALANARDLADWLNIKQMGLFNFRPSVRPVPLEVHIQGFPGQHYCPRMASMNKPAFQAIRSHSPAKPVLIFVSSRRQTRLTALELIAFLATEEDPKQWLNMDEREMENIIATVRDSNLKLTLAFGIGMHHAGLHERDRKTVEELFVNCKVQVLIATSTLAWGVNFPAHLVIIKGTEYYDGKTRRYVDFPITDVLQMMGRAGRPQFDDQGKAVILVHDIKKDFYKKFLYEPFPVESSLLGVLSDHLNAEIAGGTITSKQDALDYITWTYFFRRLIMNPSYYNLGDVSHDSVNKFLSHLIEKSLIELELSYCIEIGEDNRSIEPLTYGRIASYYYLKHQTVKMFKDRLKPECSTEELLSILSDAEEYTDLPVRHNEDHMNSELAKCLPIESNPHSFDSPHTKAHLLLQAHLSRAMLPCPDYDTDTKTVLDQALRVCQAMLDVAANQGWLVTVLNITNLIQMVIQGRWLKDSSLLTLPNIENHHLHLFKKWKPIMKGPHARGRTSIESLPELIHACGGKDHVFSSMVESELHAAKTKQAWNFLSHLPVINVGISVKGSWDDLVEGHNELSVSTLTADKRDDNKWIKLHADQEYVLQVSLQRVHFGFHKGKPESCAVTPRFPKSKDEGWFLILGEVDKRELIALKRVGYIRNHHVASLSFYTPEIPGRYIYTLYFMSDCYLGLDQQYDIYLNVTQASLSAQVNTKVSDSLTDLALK
UniProt Q8N9N2: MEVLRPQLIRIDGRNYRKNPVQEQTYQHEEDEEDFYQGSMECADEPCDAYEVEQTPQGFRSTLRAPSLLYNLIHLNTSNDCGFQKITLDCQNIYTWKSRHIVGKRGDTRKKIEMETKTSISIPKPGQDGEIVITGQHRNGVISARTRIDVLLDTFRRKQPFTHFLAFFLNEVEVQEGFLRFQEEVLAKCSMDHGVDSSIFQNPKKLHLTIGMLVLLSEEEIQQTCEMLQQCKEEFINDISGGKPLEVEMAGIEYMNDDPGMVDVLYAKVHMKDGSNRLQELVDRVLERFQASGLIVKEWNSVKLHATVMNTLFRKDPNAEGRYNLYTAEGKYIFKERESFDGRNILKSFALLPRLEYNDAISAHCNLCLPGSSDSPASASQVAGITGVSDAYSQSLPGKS

Assays:
[1] = target: T1, N-terminally Flag-tagged TRIP4^Δ1-276 (human) (UniProt Q15650); experiment: co-IP; Flag/His-tagged TRIP4 variants precipitated from cell lysates with α-Flag-M2 magnetic beads (50 mM Tris-HCl pH 7.4, 150 mM NaCl, 0.5 mM EDTA, 0.1% Triton-X-100, 10% glycerol), eluted with 3xFlag peptide; western blot for ASCC1, ASCC2, ASCC3
T1 sequence: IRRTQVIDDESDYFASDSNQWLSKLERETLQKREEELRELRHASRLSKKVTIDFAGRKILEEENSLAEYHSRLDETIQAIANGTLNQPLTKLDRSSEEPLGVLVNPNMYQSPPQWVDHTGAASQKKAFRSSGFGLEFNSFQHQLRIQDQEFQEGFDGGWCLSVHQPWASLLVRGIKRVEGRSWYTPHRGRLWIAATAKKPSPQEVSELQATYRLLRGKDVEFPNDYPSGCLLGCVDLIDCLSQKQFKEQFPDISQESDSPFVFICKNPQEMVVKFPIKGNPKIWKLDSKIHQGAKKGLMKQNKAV

[2] = target: T2, N-terminally Flag-tagged TRIP4^Δ403-581 (human) (UniProt Q15650); experiment: as above
T2 sequence: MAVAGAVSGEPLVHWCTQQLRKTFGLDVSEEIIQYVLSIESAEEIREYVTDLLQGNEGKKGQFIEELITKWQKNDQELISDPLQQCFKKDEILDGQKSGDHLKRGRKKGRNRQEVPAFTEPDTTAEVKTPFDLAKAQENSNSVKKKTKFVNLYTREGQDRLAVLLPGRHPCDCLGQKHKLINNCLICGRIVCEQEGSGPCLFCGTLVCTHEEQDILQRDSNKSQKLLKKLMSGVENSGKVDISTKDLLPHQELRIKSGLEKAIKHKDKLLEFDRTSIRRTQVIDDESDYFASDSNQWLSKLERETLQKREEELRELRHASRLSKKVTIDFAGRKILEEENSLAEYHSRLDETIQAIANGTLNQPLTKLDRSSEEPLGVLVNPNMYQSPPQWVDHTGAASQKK

[3] = target: T3, C-terminally Flag-tagged full-length TRIP4 (human) (UniProt Q15650); experiment: as above
T3 sequence: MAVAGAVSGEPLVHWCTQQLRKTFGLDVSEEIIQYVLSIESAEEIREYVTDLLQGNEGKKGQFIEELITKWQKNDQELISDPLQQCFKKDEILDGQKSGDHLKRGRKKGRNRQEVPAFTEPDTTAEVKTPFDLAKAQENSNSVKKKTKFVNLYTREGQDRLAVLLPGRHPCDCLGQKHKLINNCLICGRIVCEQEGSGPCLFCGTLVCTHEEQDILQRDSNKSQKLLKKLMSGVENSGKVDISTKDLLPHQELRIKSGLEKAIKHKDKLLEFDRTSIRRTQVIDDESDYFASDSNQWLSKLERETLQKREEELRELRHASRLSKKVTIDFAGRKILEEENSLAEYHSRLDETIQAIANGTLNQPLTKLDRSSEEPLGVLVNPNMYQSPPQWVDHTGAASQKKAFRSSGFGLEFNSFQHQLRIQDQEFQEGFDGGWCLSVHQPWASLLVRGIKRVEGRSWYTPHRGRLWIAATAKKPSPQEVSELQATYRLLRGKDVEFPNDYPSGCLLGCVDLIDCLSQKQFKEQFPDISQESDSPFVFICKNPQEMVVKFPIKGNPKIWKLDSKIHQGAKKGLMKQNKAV

[4] = target: T4, N-terminally Flag-tagged full-length TRIP4 (human) (UniProt Q15650); experiment: as above
T4 sequence: T3 sequence

[5] = target: T5, C-terminally Flag-tagged TRIP4^Δ1-276 (human) (UniProt Q15650); experiment: as above
T5 sequence: T1 sequence

[6] = target: T6, C-terminally Flag-tagged TRIP4^Δ403-581 (human) (UniProt Q15650); experiment: as above
T6 sequence: T2 sequence

[7] = target: ASCC3 helicase region (ASCC3^HR, residues 401-2202) (human) (UniProt Q8N3C0); experiment: condition: 100 pmol ASCC3^HR, two to tenfold molar excess of the other protein, 80 µl; SEC; analytical SEC, Superdex 200 3.2/300; 20 mM HEPES-NaOH pH 7.5, 250 mM NaCl, 5% glycerol, 1 mM DTT; 100 pmol ASCC3^HR mixed with other proteins in two to tenfold molar excess in 80 µl, 30 min on ice; fractions by SDS-PAGE; both purified
[8] = target: ASCC3 N-terminal region (ASCC3^NTR, residues 1-400) (human) (UniProt Q8N3C0); experiment: SEC; analytical SEC, Superdex 200 3.2/300; 20 mM HEPES-NaOH pH 7.5, 250 mM NaCl, 5% glycerol, 1 mM DTT; 100 pmol ASCC3^HR mixed with other proteins in two to tenfold molar excess in 80 µl, 30 min on ice; fractions by SDS-PAGE; both purified

B1: TRIP4^1-80 (domain or fragment, UniProt Q15650 1-80)
chain: MAVAGAVSGEPLVHWCTQQLRKTFGLDVSEEIIQYVLSIESAEEIREYVTDLLQGNEGKKGQFIEELITKWQKNDQELIS
- binding [7]: no binding

B2: TRIP4, full length, co-produced with ASCC3^HR in insect cells (natural protein, human, UniProt Q15650 1-581, looked up)
chain: T3 sequence
- binding [8]: no binding

B3: ASCC2 (activating signal co-integrator 1 complex subunit 2), endogenous (protein, UniProt Q9H1I8 1-757)
chain: MPALPLDQLQITHKDPKTGKLRTSPALHPEQKADRYFVLYKPPPKDNIPALVEEYLERATFVANDLDWLLALPHDKFWCQVIFDETLQKCLDSYLRYVPRKFDEGVASAPEVVDMQKRLHRSVFLTFLRMSTHKESKDHFISPSAFGEILYNNFLFDIPKILDLCVLFGKGNSPLLQKMIGNIFTQQPSYYSDLDETLPTILQVFSNILQHCGLQGDGANTTPQKLEERGRLTPSDMPLLELKDIVLYLCDTCTTLWAFLDIFPLACQTFQKHDFCYRLASFYEAAIPEMESAIKKRRLEDSKLLGDLWQRLSHSRKKLMEIFHIILNQICLLPILESSCDNIQGFIEEFLQIFSSLLQEKRFLRDYDALFPVAEDISLLQQASSVLDETRTAYILQAVESAWEGVDRRKATDAKDPSVIEEPNGEPNGVTVTAEAVSQASSHPENSEEEECMGAAAAVGPAMCGVELDSLISQVKDLLPDLGEGFILACLEYYHYDPEQVINNILEERLAPTLSQLDRNLDREMKPDPTPLLTSRHNVFQNDEFDVFSRDSVDLSRVHKGKSTRKEENTRSLLNDKRAVAAQRQRYEQYSVVVEEVPLQPGESLPYHSVYYEDEYDDTYDGNQVGANDADSDDELISRRPFTIPQVLRTKVPREGQEEDDDDEEDDADEEAPKPDHFVQDPAVLREKAEARRMAFLAKKGYRHDSSTAVAGSPRGHGQSRETTQERRKKEANKATRANHNRRTMADRKRSKGMIPS
- binding [1]: no binding
- binding [2]: binds
- binding [3]: binds
- binding [4]: binds
- binding [5]: no binding
- binding [6]: binds

B6: TRIP4^281-581 (domain or fragment, UniProt Q15650 281-581)
chain: QVIDDESDYFASDSNQWLSKLERETLQKREEELRELRHASRLSKKVTIDFAGRKILEEENSLAEYHSRLDETIQAIANGTLNQPLTKLDRSSEEPLGVLVNPNMYQSPPQWVDHTGAASQKKAFRSSGFGLEFNSFQHQLRIQDQEFQEGFDGGWCLSVHQPWASLLVRGIKRVEGRSWYTPHRGRLWIAATAKKPSPQEVSELQATYRLLRGKDVEFPNDYPSGCLLGCVDLIDCLSQKQFKEQFPDISQESDSPFVFICKNPQEMVVKFPIKGNPKIWKLDSKIHQGAKKGLMKQNKAV
- binding [7]: no binding

Next, values leading:

- binding [1]: no binding
- binding [2]: binds
- binding [3]: binds
- binding [4]: binds
- binding [5]: no binding
- binding [6]: binds
Molecule: ASCC1 (activating signal co-integrator 1 complex subunit 1), endogenous (from UniProt Q8N9N2 1-400)

- binding [7]: no binding
B4: TRIP4^281-403 (domain or fragment, UniProt Q15650 281-403)
chain: QVIDDESDYFASDSNQWLSKLERETLQKREEELRELRHASRLSKKVTIDFAGRKILEEENSLAEYHSRLDETIQAIANGTLNQPLTKLDRSSEEPLGVLVNPNMYQSPPQWVDHTGAASQKKA

- binding [7]: no binding
B5: TRIP4^403-581 (domain or fragment, UniProt Q15650 403-581)
chain: AFRSSGFGLEFNSFQHQLRIQDQEFQEGFDGGWCLSVHQPWASLLVRGIKRVEGRSWYTPHRGRLWIAATAKKPSPQEVSELQATYRLLRGKDVEFPNDYPSGCLLGCVDLIDCLSQKQFKEQFPDISQESDSPFVFICKNPQEMVVKFPIKGNPKIWKLDSKIHQGAKKGLMKQNKAV
